Test results as given in the supplement of paper PMC3334620.
In all, about 33,000 sequences were measured (“E-score (-0.5 to 0.5)”: median about -0.036, highest 2% from about 0.37 on). The list shows a part of the results.

Molecular target: T1, Yer064c (UniProt P40041)
T1 sequence: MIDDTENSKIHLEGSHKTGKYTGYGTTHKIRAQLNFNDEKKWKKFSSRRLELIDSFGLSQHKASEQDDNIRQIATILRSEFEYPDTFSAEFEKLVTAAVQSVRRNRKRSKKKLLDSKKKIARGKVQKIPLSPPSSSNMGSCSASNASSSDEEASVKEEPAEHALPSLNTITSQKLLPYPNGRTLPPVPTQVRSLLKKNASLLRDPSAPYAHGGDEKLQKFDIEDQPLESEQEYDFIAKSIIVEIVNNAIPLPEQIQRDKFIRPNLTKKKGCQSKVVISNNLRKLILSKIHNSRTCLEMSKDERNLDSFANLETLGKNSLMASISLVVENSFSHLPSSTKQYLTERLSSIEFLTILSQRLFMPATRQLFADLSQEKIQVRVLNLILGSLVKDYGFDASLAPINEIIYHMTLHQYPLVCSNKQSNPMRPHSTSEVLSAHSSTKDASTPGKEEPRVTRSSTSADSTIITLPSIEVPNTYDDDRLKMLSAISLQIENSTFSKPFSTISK
Assay: PBM E-score (8-mer binding enrichment) (E-score (-0.5 to 0.5)); higher = stronger / more preferred TF binding; most listed sequences are background and not binding sites
Conditions: protein concentration: 200 nM; construct: GST-full length
Procedure: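 Universal 'all 10-mer' protein binding microarrays (Agilent AMADID 015681) probed with GST-tagged S. cerevisiae TFs (full-length or DBD) made by in vitro transcription/translation (PURExpress), about 100-200 nM. Bound TF was detected with fluorescent anti-GST. Each ungapped 8-mer (which stands for itself and its reverse complement) is scored by the PBM enrichment score (E-score), a modified Wilcoxon-Mann-Whitney statistic from -0.5 to +0.5, computed with the Universal PBM Analysis Suite. Scale: above 0.35 generally sequence-specific binding.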

Row | Sequence | PBM E-score
1 | CCGCGAAC | -0.0811
2 | AACAGTTA | 0.0987
3 | AGAGGAGC | -0.0689
4 | AATCCATG | 0.106
5 | ACGCGCCG | -0.215
6 | GGACCACA | -0.147
7 | CGTTTTAG | -0.0279
8 | ACGAAGTA | -0.0527
9 | GCTCAGGA | 0.188
10 | AAAGTGTT | -0.0823
11 | CGGCAAAC | -0.212
12 | ACATCGCT | -0.114
13 | GGACTGTA | 0.0239
14 | ACTCGGGG | 0.104
15 | AGGTTCCA | -0.102
16 | AGGCAGAT | -0.108
17 | AATGCGGT | -0.252
18 | CCTCCAGA | -0.201
19 | ATCATTGG | 0.233
20 | CATCCCTC | -0.225
21 | GGAGTCCA | 0.243
22 | TAATTAAA | 0.0874
23 | TAAATGCA | -0.0221
24 | TAATCGCA | 0.256
25 | AGTCAGAG | 0.428

Row | Sequence | PBM E-score
26 | AAGAGAAG | 0.0383
27 | AGCGTTGC | -0.278
28 | AGTGTTGC | -0.0061
29 | CAACGGCG | -0.247
30 | ACTCCGCC | 0.136
31 | ACTCACCC | 0.401
32 | TAGAACGA | 0.135
33 | ACGACAGG | -0.0834
34 | AATATGTA | 0.0357
35 | AGGTTCGC | -0.122
36 | TGAACGAA | -0.0706
37 | CAAGTGAA | 0.0855
38 | ATACACCC | 0.044
39 | AAGCTTAC | 0.0786
40 | TCGGTGAA | 0.164
41 | TAACATGA | 0.311
42 | GAGGGAGA | 0.0527
43 | CGCCCTGC | -0.181
44 | AAAACCTC | -0.0989
45 | CAGTGCTC | 0.0856
46 | ATTAAGCA | -0.0338
47 | ACTGTGCA | 0.1
48 | TGAGGCCA | -0.0565
49 | CGAGGTTA | -0.102
50 | CCTTTTTA | -0.00627

Row | Sequence | PBM E-score
51 | CGTAAATC | 0.0598
52 | CATTGGAC | -0.0943
53 | AGCCTACG | -0.105
54 | AAGCGTAC | -0.081
55 | AATCTATA | 0.108
56 | ATAGGATG | 0.0522
57 | CGGGGTGA | 0.104
58 | AGCGAGGC | -0.282
59 | AGTCCGCC | 0.293
60 | CACGTACA | 0.0316
61 | ATAGTAAG | 0.077
62 | GACTTCGA | 0.267
63 | CAGCTTCG | -0.0681
64 | GCGAGTTA | 0.039
65 | GATTTAGA | 0.203
66 | CGCAACCG | -0.225
67 | AAATGAAG | 0.0192
68 | ACAAACCA | -0.0464
69 | ACTGCTGA | 0.16
70 | AACGCGCA | -0.0783
71 | AGATCAAA | 0.048
72 | AGAATAAG | 0.0158
73 | CCTGTAGA | -0.262
74 | GCCATCTA | 0.0354
75 | ATACCCTG | -0.232

Row | Sequence | PBM E-score
76 | ATAATAAC | -0.124
77 | ACTCCACG | 0.0785
78 | CTGAGTAA | 0.204
79 | CTAAGCCA | 0.0157
80 | AAAAAATT | -0.0792
81 | AGTCCCAG | -0.0136
82 | GGGCCGCA | -0.28
83 | CCGTTAAC | -0.0544
84 | CTCCTTGA | 0.0328
85 | AGTTGGAC | -0.0344
86 | ACGAGTAT | 0.135
87 | CACCAGGG | -0.167
88 | ACCAAGCT | 0.124
89 | CATGTTGG | -0.0775
90 | GGCAATCA | 0.283
91 | AAACGGAA | -0.101
92 | GCGGAGGA | -0.216
93 | CCTATGGA | -0.0997
94 | CCAGACGC | -0.185
95 | CAACTAAC | 0.132
96 | ACGCGTGG | -0.0261
97 | CCTGGTGC | -0.136
98 | TGCCCAAA | -0.271
99 | AAGGTGGG | -0.0618
100 | AACCTAAC | -0.172

Row | Sequence | PBM E-score
101 | GGCATTTA | -0.255
102 | CCAGATAA | 0.16
103 | AAGTGCCT | -0.165
104 | ACCCTGCG | -0.147
105 | ATGTGTAC | 0.193
106 | AGCACTAC | 0.0977
107 | ATGAGCTG | -0.109
108 | ATAGCGCC | -0.106
109 | CAAGCAGA | -0.138
110 | ATTCGCCC | -0.152
111 | CAACCGGC | -0.11
112 | ATTAGCTA | 0.0473
113 | AGGCTTTG | -0.279
114 | CCGTGACA | -0.0855
115 | CGGGTGGC | -0.133
116 | GATCTGTA | -0.0639
117 | GTATCTGA | 0.106
118 | AGGTCATG | 0.17
119 | AGGTCAGA | 0.0471
120 | TTAGTCAA | 0.464
121 | ATGCTCGG | -0.0304
122 | CTCCCGGC | -0.115
123 | AAGTGGAT | -0.143
124 | CGTTGTCA | -0.123
125 | AAACGTCT | -0.07

Row | Sequence | PBM E-score
126 | CCGAGGCC | -0.399
127 | ATACTTCC | -0.257
128 | CAACTGTC | -0.0861
129 | ACGTGGGG | -0.25
130 | ATACGAGA | -0.0298
131 | GAATACTC | 0.119
132 | GACTGGGC | 0.0848
133 | GTCGATGA | 0.261
134 | CGATCTGC | -0.0747
135 | GCGAGGTA | -0.0192
136 | CGTTGAAG | -0.0481
137 | CCTTGTCC | -0.0981
138 | TACGTGGA | -0.0983
139 | AGTCAGCA | 0.455
140 | ACAGGGGA | -0.21
141 | AGCTTAAT | 0.00456
142 | CTCTGCTC | -0.0659
143 | CCTCTAGA | 0.0428
144 | GCGAGTAC | 0.211
145 | ATACTTGC | -0.184
146 | CCGCAAAA | 0.0149
147 | ATTAGACC | 0.0346
148 | CCGATTCA | 0.166
149 | AGGACCCC | -0.252
150 | CGGGCCCA | -0.239

Row | Sequence | PBM E-score
151 | GTGGGAAA | 0.0438
152 | CAACGACC | -0.0283
153 | CTCACCCA | 0.244
154 | CCGGGTAC | -0.0988
155 | ATTAGTAG | 0.146
156 | GACTATCC | 0.404
157 | ACACCTCT | -0.0794
158 | CTCCCATC | -0.0216
159 | GCCACGGA | -0.114
160 | AACAACTT | 0.0228
161 | CAGAGACA | -0.0213
162 | ACACTTTG | 0.062
163 | GAATTAGA | 0.0326
164 | CGGCCTCA | -0.23
165 | ACAACTTC | -0.0794
166 | TTATGAAA | 0.0843
167 | AGCTCGTC | -0.165
168 | GCTGCAAA | 0.0143
169 | ATGGCTGA | 0.158
170 | CGCCGGAC | -0.153
171 | CAATCCTG | -0.00882
172 | CACTCCGG | -0.097
